Assay results taken from PubChem BioAssay AID1345083 (National Center for Advancing Translational Sciences (NCATS), 2018).
Where “and” joins values, the source holds several entries; their conditions need not be identical. Equal entries are not always repeated. Screen size: about 94,000 compounds; about 6,200 (6.6%) were called active. Inconclusive means that the source gave no clear call. Such entries were picked first, then a sample of the others. Calls follow the shape of the dose curve; as a rule, active = well fitted inhibition curve with a large enough effect; inconclusive = small, poorly fitted or top-dose-only effect; inactive = flat fitted curve, though single readings scatter. Where the call is inconclusive, the potency comes from a doubtful curve fit.
% is scaled to controls: 0 for no effect and ±100 for the full control effect; potency is read from the fitted curve at half-maximal effect; tags tell the direction and shape of the fitted curve.

Experiment: Cytotoxic Profiling in HEK 293 Cell Line of Diverse Libraries Using Quantitative High-Throughput Screening; also: nearly all actives have a fitted effect of over 60% in size
Settings: HEK 293 viability, ATP luminescence (CellTiter-Glo), 48-72 h; activity change, negative = cytotoxicity: at 115 µM (top of the series) unless noted; series mostly up to 115 µM
How it was run: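 Cells seeded first (HEK 293, 250 cells/well), then compound added by pintool. Incubation ran 48 or 72 hr at 37 degree Celsius. CellTiter-Glo was added and luminescence imaged after 10 min at room temperature.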
For `COC(=O)[C@@H]1Cc2c([nH]c3ccccc23)[C@H]2C[C@@H](NCCNC(C)=O)C[C@@H](c3ccc(C)cc3)N21`, the Potency was active: 28.2 µM.
In the case of `CC(C)NC(=O)c1csc(-c2cccc(OC(C)C)c2)n1`, the Potency is reported as inconclusive: 44.7 µM [inhibitor, partial curve, poor fit].
With `O=C(Nc1cccnc1)[C@@H]1CCCN1c1ccnc2ccnn12` the “activity change, negative = cytotoxicity” value was inactive: -14.2% [at 172 µM].
For `NC(=O)C1(N2CCCCC2)CCN(c2nccc(-c3ccccn3)n2)CC1`, the “activity change, negative = cytotoxicity” value was inactive: -0.369%.
In the case of `COc1ccc(OC)c(NC(=O)Cc2cccn2-c2ccc(Cl)cc2)c1`, the Potency is reported as inconclusive: 89.1 µM [inhibitor, single point].
For `O=C(C1CCCC1)N1Cc2ccccc2CC2(CCN(CC3CCNC3)C2)C1` (stereo not drawn), the Potency was inconclusive: 50.1 µM [inhibitor, partial curve, poor fit].
In the case of `COCc1cn([C@H]2CO[C@H]3[C@@H]2OC[C@H]3OC(=O)Nc2ccc(C)cc2)nn1`, the “activity change, negative = cytotoxicity” value is reported as inactive: -7.17% [at 172 µM].
For `O=C(C1CCCC1)N1CCC(c2noc(-c3ccncc3)n2)C1` (stereo not drawn), the “activity change, negative = cytotoxicity” value was inactive: 2.3%.
With `Cc1nnc(-c2cc(-c3cnn(C)c3)ccn2)n1C1CCCCC1` the “activity change, negative = cytotoxicity” value was inactive: 2.18% [at 172 µM].
For `COCCN1CCCN(C(=O)c2cccc(OC)c2)c2ccccc21`, the Potency was inconclusive: 89.1 µM [inhibitor, single point].
With `Cc1ccc(-c2cc3c(=O)n(CCNC(=O)c4ccc(Cl)cc4)ccn3n2)c(C)c1` the Potency was active: 39.8 µM.
For `COc1ccc(NC(=O)CN2C(=O)NC3(CCC(C(C)(C)C)CC3)C2=O)cc1OC` (stereo not drawn), the Potency was inconclusive: 3.98 µM [inhibitor, full curve, poor fit].
For `CCCn1cnc2c1CN(S(=O)(=O)c1cccc3cccnc13)[C@H](C(=O)OC)C2`, the “activity change, negative = cytotoxicity” value was inactive: -7.52% [at 172 µM].
For `Cc1cccc(C(=O)N2C(C(=O)NCC3CCCO3)COC23CCN(C(=O)C(C)(C)C)CC3)c1` (stereo not drawn), the Potency was inconclusive: 89.1 µM [inhibitor, single point].
With `CSc1ccc(-c2cccc(C(=O)NCC(=O)N3CCC(c4ccccc4)CC3)c2)cc1` the Potency was inconclusive: 15.8 µM [inhibitor, full curve].
For `Cc1noc(C)c1Cn1cc2c3c(cccc31)[C@H](CC(C)C)N[C@H](C(=O)O)C2`, the “activity change, negative = cytotoxicity” value was inactive: -21.7% [at 172 µM].
With `O=C(c1ccc(Cl)cc1)N1CCC(N2CCCS2(=O)=O)CC1` the “activity change, negative = cytotoxicity” value was inactive: -15%.
In the case of `O=C1NCCOCCCN(S(=O)(=O)c2ccc3c(c2)OCCO3)[C@H]2CCC[C@@H]12`, the “activity change, negative = cytotoxicity” value is reported as inactive: -0.336%.
In the case of `CC(C(=O)NC1CC1)[C@@H]1CC[C@@]2(C)CC[C@H](NC(=O)Nc3cccc(F)c3)[C@@H](C)[C@@H]2[C@H]1O` (stereo partly drawn), the “activity change, negative = cytotoxicity” value is reported as inactive: 1.03%.
With `CN1c2cc(C(=O)Nc3ccc4c(c3)CCC4)ccc2C(=O)N2CCCCC21` (stereo not drawn) the Potency was inconclusive: 50.1 µM [inhibitor, partial curve, poor fit].
For `COCCCn1c(=O)c(C(=O)N2CCN([S+](=O)([O-])c3cccs3)CC2)nc2cccnc21`, the “activity change, negative = cytotoxicity” value was inactive: -17.6%.
With `O=C(CCC1CCN(C(=O)c2ccccc2)CC1)Nc1ccc(F)cc1F` the Potency was inconclusive: 50.1 µM [inhibitor, partial curve, poor fit].
With `COc1ccc(-c2ccc(C(=O)NC3CCCCC3)c(Cl)c2)nn1` the Potency was inconclusive: 89.1 µM [inhibitor, single point].
With `O=[S+]1([O-])c2cccnc2OC(COc2ccccc2)CN1Cc1ccc2c(c1)OCO2` (stereo not drawn) the Potency was inconclusive: 31.6 µM [inhibitor, partial curve].
For `CC(C)c1noc(-c2cn(C3CCCN(C(=O)c4cccn4C)C3)nn2)n1` (stereo not drawn), the Potency was inconclusive: 79.4 µM [inhibitor, single point].
In the case of `C=CCCC(=O)N1[C@@H](c2ccco2)[C@@H](C(=O)NC)C[C@]12CCCCN(CCO)C2=O`, the Potency is reported as inconclusive: 100 µM [inhibitor, partial curve, poor fit].
In the case of `c1cnc2cc(-c3nc(C4CCOC4)no3)ccc2n1` (stereo not drawn), the “activity change, negative = cytotoxicity” value is reported as inactive: -23.7%.
For `COCCN1C(=O)[C@@H]2C[C@@H](CN2Cc2ccc3c(c2)OCO3)Oc2ccccc21`, the Potency was inconclusive: 31.6 µM [inhibitor, full curve].
For `COCCCn1c(=O)c(C(=O)N2CCN(C(=O)C3CC3)CC2)nc2cccnc21`, the “activity change, negative = cytotoxicity” value was inactive: -0.196%.
For `Cc1ccc(C2Cn3cnc(C(=O)N4CCC(C(=O)NCc5ccc(F)cc5)CC4)c3CO2)cc1` (stereo not drawn), the “activity change, negative = cytotoxicity” value was inactive: 7.53%.
In the case of `O=C1NCCCCCN(C(=O)c2nccc3ccccc23)[C@H]2CCC[C@@H]12`, the Potency is reported as inconclusive: 22.4 µM [inhibitor, full curve].
With `O[C@@H]1C[C@@H](c2nc(-c3ccc4c(c3)OCO4)no2)N(Cc2ccc(-c3ccccn3)cc2)C1` the Potency was inconclusive: 89.1 µM [inhibitor, partial curve, poor fit].
With `CC(C)CCN1CCn2c(nn(-c3ccc(F)cc3F)c2=O)C1` the Potency was inconclusive: 112 µM [inhibitor, single point].
In the case of `O=C(Nc1cccc(-c2nnc3n2CCCC3)c1)NC1CCCC1`, the “activity change, negative = cytotoxicity” value is reported as inactive: 2.99%.
In the case of `COc1cccc(-c2cc(C3CCN(C(=O)Nc4ccc(F)cc4)CC3)[nH]n2)c1`, the Potency is reported as inconclusive: 50.1 µM [inhibitor, partial curve, poor fit].
With `CS(=O)(=O)c1ccc(CN2CCN3C(=O)N(C4CCCCC4)C[C@H]3C2)cc1` the Potency was inconclusive: 56.2 µM [inhibitor, full curve].
For `O=C(NCC1CCCO1)c1cc2c(=O)[nH]c(-c3ccccc3)cn2n1` (stereo not drawn), the Potency was inconclusive: 89.1 µM [inhibitor, single point].
In the case of `CCOC(=O)C1CCN(C(=O)c2cc(-c3ccc(F)cc3)nc3c2cnn3C)CC1`, the Potency is reported as inconclusive: 89.1 µM [inhibitor, single point].
With `Cc1cc(-c2cnc3n[nH]c(-c4ccccc4)c3n2)ccn1` the Potency was inconclusive: 12.6 µM [inhibitor, full curve].
In the case of `CC1=C[C@@H](CN2CCN(c3ccccn3)CC2)[C@H](C(C)C)C[C@H]1Cc1nnc(-c2cncn2C)o1`, the Potency is reported as active: 31.6 µM.
For `O=C1NCc2ccccc2CC12CCN(Cc1ccc(Cl)cc1)C2` (stereo not drawn), the Potency was inconclusive: 56.2 µM [inhibitor, partial curve, poor fit].
For `O=C(c1cc(C2CC2)nc2c1c(C1CCCN1)nn2-c1ccccc1)N1CCOCC1` (stereo not drawn), the Potency was inconclusive: 70.8 µM [inhibitor, partial curve].
For `CN(C)C[C@@H]1CN(C)C[C@H]1NC(=O)Cc1ccc(Cl)cc1`, the Potency was inconclusive: 50.1 µM [inhibitor, partial curve, poor fit].
In the case of `CCC(C(=O)NCc1nnc2ccc(-c3ccccc3)nn12)c1ccccc1` (stereo not drawn), the Potency is reported as inconclusive: 79.4 µM [inhibitor, single point].
For `CC1=C[C@@H](CNCC(C)C)[C@H](C(C)C)C[C@H]1Cc1nc2c(C)cccc2[nH]1`, the Potency was active: 39.8 µM.
For `COc1ccc(CN2CCn3c(nn(-c4ccc(Cl)cc4)c3=O)C2)cc1`, the Potency was inconclusive: 89.1 µM [inhibitor, partial curve, poor fit].
In the case of `CN1CCN(C(=O)c2nc3sccn3c2-c2ccc(F)cc2)CC1`, the “activity change, negative = cytotoxicity” value is reported as inactive: -3.39%.
For `COc1cccc(-c2ccc(CN3CCCC(NC(=O)C(C)C)C3)cc2)c1` (stereo not drawn), the Potency was active: 39.8 µM.
In the case of `O=C(Cc1cccc(Cl)c1)N1CCC(n2cc(-c3nc(-c4ccccc4)no3)nn2)CC1`, the “activity change, negative = cytotoxicity” value is reported as inactive: -12.3%.
For `CC1(C)[C@H]2CC[C@@H](CNC(=O)c3ccc(C(F)(F)F)cc3)[C@@H]1C2`, the Potency was inconclusive: 44.7 µM [inhibitor, full curve, poor fit] and inconclusive: 112 µM [inhibitor, partial curve, poor fit].
With `Cc1ccc(C(=O)N2CCN(c3nccc(Nc4ccccc4F)n3)CC2)cc1` the Potency was active: 44.7 µM and inconclusive: 39.8 µM [inhibitor, partial curve, poor fit].
With `c1ccc(-c2cc(CC3(NCc4ccncc4)COC3)no2)cc1` the Potency was inconclusive: 126 µM [inhibitor, partial curve, poor fit].
With `O=C(NCc1ccco1)[C@H]1CN(Cc2ccccc2)C[C@H]1C(=O)O` the Potency was inconclusive: 100 µM [inhibitor, single point].
In the case of `Cc1cccc2c1nc1n2[C@@H](CNCc2ccc(S(C)(=O)=O)cc2)COC1`, the Potency is reported as inconclusive: 50.1 µM [inhibitor, partial curve, poor fit].
For `CCOc1ccccc1C1NC(=O)N(CC(=O)Nc2cccc(SC)c2)C2=C1C(=O)OC2` (stereo not drawn), the Potency was inconclusive: 50.1 µM [inhibitor, partial curve, poor fit].
With `O=C(Cc1cccc(Cl)c1)N1CCN(C(=O)c2cccc(-c3ccccn3)c2)CC1` the Potency was inconclusive: 89.1 µM [inhibitor, single point].
With `CCCCN(CC#Cc1ccccc1)C(=O)c1cc(=O)n(C)c(=O)n1C` the Potency was inconclusive: 50.1 µM [inhibitor, partial curve, poor fit].
With `O=C(c1ccccc1F)N1CCCC(Cc2nc(C3CCOCC3)no2)C1` (stereo not drawn) the “activity change, negative = cytotoxicity” value was inactive: -2.1%.
For `COC1CN(c2ccc(C)cc2)C12CCN(C(=O)c1nccc3ccccc13)CC2` (stereo not drawn), the Potency was inconclusive: 56.2 µM [inhibitor, partial curve, poor fit].
For `Cn1cc(CC(=O)N2CCCc3ncc(C(=O)NCCc4ccccn4)cc32)c2ccccc21`, the Potency was inconclusive: 79.4 µM [inhibitor, partial curve].
For `COc1ccccc1-c1ccc(C(=O)N2CCC(NC(=O)c3ccccc3)CC2)cc1`, the Potency was inconclusive: 56.2 µM [inhibitor, partial curve, poor fit].
In the case of `COCc1ccc2c(c1)c(OC(C)(C)C(=O)NCCc1cccnc1)nn2CCC(C)C`, the Potency is reported as inconclusive: 100 µM [inhibitor, partial curve].
In the case of `Cn1cc(-c2cnc3n[nH]c(-c4ccc5c(c4)OCO5)c3n2)cn1`, the Potency is reported as inconclusive: 6.31 µM [inhibitor, full curve, poor fit].
